Screen size: about 310,000 compounds; about 11,000 (3.5%) were called active. Inconclusive means that the source gave no clear call. Such entries were picked first, then a sample of the others. Calls come from the whole dose curve; as a rule, active = well fitted inhibition curve with a large enough effect; inconclusive = small, poorly fitted or top-dose-only effect, or effect the other way; inactive = flat fitted curve, though single readings scatter. Potencies of inconclusive entries are left out as doubtful fits.
Test: VP16 counterscreen qHTS for inhibitors of ROR gamma transcriptional activity;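 note: Gal4-VP16 expression switched on by copper sulfate through the metallothionein promoter; nearly all actives have a fitted effect of over 50% in size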
Conditions: Drosophila S2 Gal4-VP16 UAS-luciferase, luminescence, 20 h; activity, negative = inhibition: at 53.6 µM (top of the series)
In the case of `COC(=O)c1cc(S(=O)(=O)NC2CCC(C)CC2)cn1C` (configuration not stated), the “activity, negative = inhibition” value is reported as inactive: -1.87%. With `Nc1nonc1-c1noc(-c2ccccc2)n1` the Potency was inconclusive [activator, partial curve]. With `CC(=O)/C=C/n1c(=S)oc2ccccc21` the Potency was active: 3.16 µM. With `O=C(COc1ccccc1Cl)N1CCc2ccccc2C1` the Potency was inconclusive [activator, single point]. For `CN(C)c1nc(N)c(C(=O)Nc2cccnc2)nc1Cl`, the “activity, negative = inhibition” value was inactive: -15%. For `COc1cccc(/C=C2\SC(=O)N(CCC(=O)N3CCC(C(=O)O)CC3)C2=O)c1`, the “activity, negative = inhibition” value was inactive: -19.7%. For `COc1ccccc1OCc1nnc(SCC(=O)Nc2ccc(N3CCOCC3)cc2)n1C`, the “activity, negative = inhibition” value was inactive: -2.81%. In the case of `CN(C)c1cc[n+](/C(C(=S)Nc2ccc(SC(F)F)cc2)=C(/[O-])c2ccccc2)cc1`, the “activity, negative = inhibition” value is reported as inactive: -16.7%. For `CCOc1cccc2cc(C(=O)Oc3ccc(OC)cc3)c(=O)oc12`, the Potency was inconclusive [inhibitor, partial curve]. In the case of `CCN(CC)c1ccc(/C=N/NC(=O)c2ccco2)cc1`, the Potency is reported as inconclusive [inhibitor, partial curve]. With `Cc1ccc(OCc2n[nH]c(=S)n2Cc2ccccc2)cc1` the Potency was active: 6.31 µM. In the case of `CCOC(=O)c1cc(C)sc1NC(=S)Nc1ccccc1`, the Potency is reported as active: 3.16 µM. For `Cc1ccc(NC(=O)C(=O)NCCN2CCN(S(=O)(=O)c3ccccc3)CC2)cc1C`, the activity, negative = inhibition was inactive: -4.78% [at 10 µM]. In the case of `COc1ccc(C(C)NC(=S)NC2CCCCC2)cc1OC` (configuration not stated), the Potency is reported as inconclusive [inhibitor, single point]. For `O=C(N/N=C/c1cc(Br)c(O)c(Br)c1O)c1ccc2c(c1)OCCO2`, the Potency was active: 3.16 µM. In the case of `Brc1ccc(/C=N/Nc2ccc3ccccc3n2)cc1`, the Potency is reported as inconclusive [inhibitor, single point]. For `O=C(CSc1ccccc1)Nc1ccc(-c2nc3ccccc3[nH]2)cc1`, the Potency was inconclusive [inhibitor, single point]. In the case of `CC(NC(=O)c1sc2cc([N+](=O)[O-])ccc2c1Cl)C(C)(C)C` (configuration not stated), the Potency is reported as active: 12.6 µM. With `CC(C)(C)OC(=O)N[C@@H](COCc1ccccc1)C(=O)N[C@@H](CO)[C@H](O)[C@@H]1C[C@@H]1C(=O)NC1CCCCC1` the “activity, negative = inhibition” value was inactive: 0.309%. For `CC1=NN(C(N)=S)C(=O)C1N=Nc1ccc(S(N)(=O)=O)cc1` (configuration not stated), the Potency was inconclusive [inhibitor, single point]. With `COc1ccc2[nH]c(C(=O)Nc3cccc(C)n3)cc2c1` the Potency was inconclusive [inhibitor, partial curve]. In the case of `COc1cccc(/C=N/NC(N)=S)c1OCc1ccccc1Cl`, the Potency is reported as active: 3.98 µM.

— PubChem BioAssay AID2546 (National Center for Advancing Translational Sciences (NCATS), 2010)
% is set by controls: 0 for no effect and ±100 for the full control effect; potency is the fitted concentration of half-maximal effect; tags give direction and shape of the fitted curve.
